# Experimental data as given in PubChem BioAssay (Tox21).
# Records with an inconclusive call do not appear. Unless noted, calls come from the whole dose curve; as a rule, active = well fitted curve in the direction sought with a large enough effect in the repeat runs; inconclusive = weak or mixed curves; inactive = no such curve, though single readings can be large; an effect the other way counts as inactive or inconclusive. Where a structure was tested more than once in an assay, its records may differ in their call. Some entries of the source have several records that differ or are many. This list holds those alone. There may be further records. The values listed for one entry are repeats in other runs, samples, wells, individuals or studies. What stands in brackets tells the records apart. A, B and so on number the origins entry by entry.
# Experiments:
# [1] = qHTS assay for small molecules that induce genotoxicity in human embryonic kidney cells expressing luciferase-tagged ATAD5 - cell viability (AID 651634; calls by dose curve; note: nearly all actives have a fitted effect of over 25% in size); settings: HEK293T ATAD5-luc cells viability, CellTiter-Fluor, 15.5 h; series mostly up to 83.3 µM
# Summary of the method: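 Quantitative high-throughput format. HEK293T cells expressing ATAD5 fused to luciferase were plated at 2,000 cells/well and treated 15.5 hr with compound versus DMSO. Viability was determined by fluorescent live-cell protease substrate, 30 min at 37C.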
# [2] = qHTS assay to identify small molecule antagonists of the thyroid receptor (TR) signaling pathway (AID 743065); settings: GH3.TRE-Luc, T3-stimulated luciferase inhibition, 23.5 h; series mostly up to 32.5 µM; note: nearly all actives have a fitted effect of over 55% in size
# Summary of the method: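 GH3.TRE-Luc rat pituitary cells carrying two TR response elements driving luciferase were plated for 4 h, given compound plus 1 nM T3 (final), and incubated 23.5 h at 37 C. ONE-Glo luminescence measured reporter inhibition; CellTiter-Fluor fluorescence tracked cytotoxicity.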
# [3] = qHTS assay to identify small molecule antagonists of the estrogen receptor alpha (ER-alpha) signaling pathway using the BG1 cell line in the presence of 0.1 nM 17-beta-estradiol - cell viability counter screen (AID 1259241); settings: VM7Luc4E2 (BG1) viability, CellTiter-Fluor protease, 22 h, 0.1 nM estradiol agonist added; series mostly up to 92.4 µM; note: nearly all actives have a fitted effect of over 40% in size
# Summary of the method: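 Estradiol-stimulated (0.1 nM) VM7Luc4E2 cells exposed to compounds 22 hr; viability measured by fluorescence of cleaved CellTiter-Fluor substrate after 30 min.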
# [4] = A CellTox Green Cytotoxicity Assay to monitor cytotoxicity in HEK293 cells - 24 hour (AID 1224875); settings: CellTox Green fluorescence; series mostly up to 76.8 µM; note: nearly all actives have a fitted effect of over 45% in size
# Summary of the method: (§1)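 Homogeneous no-lysis format: HEK293 cell suspension mixed with CellTox Green reagent, seeded, incubated 5 h at 37 C/5% CO2, then dosed by pintool with compound in DMSO.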
# [5] = A CellTox Green Cytotoxicity Assay to monitor cytotoxicity in HEK293 cells - 16 hour (AID 1224888); settings: CellTox Green fluorescence; series mostly up to 76.8 µM; note: nearly all actives have a fitted effect of over 35% in size
# Summary of the method: as §1
# [6] = qHTS assay to identify small molecule agonists of the sonic hedgehog signaling (Shh) pathway (AID 1259368; calls by dose curve; note: nearly all actives have a fitted effect of over 15% in size); settings: NIH/3T3 Gli1-Luc reporter, luciferase, 24 h; series mostly up to 92.4 µM
# Summary of the method: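 Stable NIH/3T3 Gli1-Luc reporter clone; 24 hr cpd exposure after a 4 hr settling period; luminescence endpoint.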
# [7] = qHTS assay to identify small molecule antagonists of the glucocorticoid receptor (GR) signaling pathway - cell viability counter screen (AID 720693); settings: GR-bla HeLa viability, CellTiter-Glo luminescence, 18 h, with 5 nM dexamethasone present; series mostly up to 58.5 µM; note: nearly all actives have a fitted effect of over 55% in size
# [8] = qHTS assay to identify small molecule antagonists of the TGF-beta/Smad signaling pathway - cell viability counter screen (AID 1346824); settings: SBE-bla HEK293T viability, CellTiter-Glo luminescence; series mostly up to 35.3 µM; note: nearly all actives have a fitted effect of over 50% in size
# Summary of the method: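 SBE-bla HEK 293T cells were plated overnight at 37 C, then given compounds in DMSO plus TGF-beta1 (added as 0.25 ng/mL solution) for 5 hr. After the bla read, CellTiter-Glo was added to the same wells and luminescence read after 30 min at room temperature.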
# [9] = qHTS assay to identify small molecule antagonists of the androgen receptor (AR) signaling pathway using the MDA cell line - cell viability counter screen (AID 743041; note: nearly all actives have a fitted effect of over 45% in size); settings: MDA-kb2 viability, CellTiter-Fluor, 16 h, cells co-treated with R1881 androgen agonist; series mostly up to 70.3 µM
# Summary of the method: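 In this qHTS counter assay, fluorescence intensity after CellTiter-Fluor addition indicated viability of MDA-kb2 AR-luc cells given compounds and R1881 for 16 h at 37C.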
# [10] = qHTS assay to identify small molecule agonists of the constitutive androstane receptor (CAR) signaling pathway - cell viability counter screen (AID 1224836); settings: HepG2-CYP2B6-hCAR viability, CellTiter-Fluor, 23 h, PK11195 added to every well; series mostly up to 42.5 µM; note: nearly all actives have a fitted effect of over 45% in size
# Summary of the method: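 Using CellTiter-Fluor, viability of HepG2 cells harbouring hCAR and CYP2B6-2.2kb was measured following 23 h incubation with a 15-concentration compound series plus PK11195 (0.75 uM final).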
# [11] = qHTS assay to identify small molecule antagonists of the constitutive androstane receptor (CAR) signaling pathway - cell viability counter screen (AID 1224837); settings: HepG2-CYP2B6-hCAR viability, CellTiter-Fluor, 23 h, co-treated with 50 nM CITCO; series mostly up to 42.5 µM; note: nearly all actives have a fitted effect of over 45% in size
# Summary of the method: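 In quantitative HTS format, compounds at 15 concentrations were applied to HepG2 cells double-transfected with hCAR and CYP2B6-2.2kb under 50 nM CITCO stimulation; live-cell protease activity was read after 23 hr via CellTiter-Fluor.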
# [12] = qHTS assay to identify small molecule antagonists of the peroxisome proliferator-activated receptor gamma (PPARg) signaling pathway - cell viability counter screen (AID 743194); settings: PPARg-bla HEK293H viability, CellTiter-Glo luminescence, 17 h, co-treated with 50 nM rosiglitazone; series mostly up to 62.6 µM; note: nearly all actives have a fitted effect of over 55% in size
# Summary of the method: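 PPARg-UAS-bla HEK293H cells were plated, rested 5 h at 37 C, then treated with compounds plus rosiglitazone (50 nM final) for 17 h at 37 C; viability was then read by CellTiter-Glo luminescence after 30 min at room temperature.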
# Potency is the fitted concentration of half-maximal effect.
structure (smiles),measurement,setting,value
CN1C[C@H](C(=O)N[C@]2(C)O[C@@]3(O)[C@@H]4CCCN4C(=O)[C@H](Cc4ccccc4)N3C2=O)C=C2c3cccc4[nH]cc(c34)C[C@H]21,Potency,[1],inactive [sample A] and active: 22.6 µM [sample B]
same,Potency,[2],active: 27.4 µM [sample A] and inactive [sample B]
same,Potency,[3],active: 19.4 µM [sample A] and inactive [sample B]
Nc1ccccc1C(=O)OCCc1ccccc1,Potency,[4],inactive [sample A] and active: 21.9 µM [sample B]
same,Potency,[5],inactive [sample A] and active: 24.5 µM [sample B]
same,Potency,[6],inactive [sample A] and active: 172 nM [sample B]
[Cl-].[Cl-].[Hg+2],Potency,[7],inactive [sample A] and active: 24.4 µM [sample B] and inactive [sample C]
CC(C)(C)CC(C)(C)c1ccc(O)cc1,Potency,[6],active: 3.44 µM [sample A] and inactive [sample B]
same,Potency,[8],active: 49 µM [sample A] and inactive [sample B]
O=C1c2ccccc2C(=O)N1SC(Cl)(Cl)Cl,Potency,[4],active: 43 µM [sample A] and inactive [sample B]
CCC(C)(C)c1ccc(O)c(C(C)(C)CC)c1,Potency,[9],inactive [sample A] and active: 54.5 µM [sample B]
same,Potency,[5],active: 43.2 µM [sample A] and inactive [sample B]
CCCCCCCCCCCC[N+](C)(C)CCOc1ccccc1,Potency,[10],active: 54.5 µM [sample A] and inactive [sample B]
same,Potency,[11],active: 61.1 µM [sample A] and inactive [sample B]
CCCCNC(=O)OCC#CI,Potency,[1],active: 54.2 µM [sample A] and inactive [sample B]
same,Potency,[3],active: 60.8 µM [sample A] and inactive [sample B]
COP(=O)(OC)OC(Br)C(Cl)(Cl)Br (stereo not drawn),Potency,[12],active: 49 µM [sample A] and inactive [sample B]
c1ccc2c(c1)sc1ccccc12,Potency,[12],inactive [sample A] and active: 29.8 µM [sample B]
